From the supplement of paper PMC3334620
Whole data set: some 33,000 sequences, median “E-score (-0.5 to 0.5)” near -0.016, cut for the highest 2% near 0.32. This is one part of the list.

The sequences below were run against T1, Stp1 (UniProt B3LFK1) (assay: PBM E-score (8-mer binding enrichment) (E-score (-0.5 to 0.5)); higher = stronger / more preferred TF binding; most listed sequences are background and not binding sites). Conditions: protein concentration: 200 nM; construct: GST-full length.
T1 sequence: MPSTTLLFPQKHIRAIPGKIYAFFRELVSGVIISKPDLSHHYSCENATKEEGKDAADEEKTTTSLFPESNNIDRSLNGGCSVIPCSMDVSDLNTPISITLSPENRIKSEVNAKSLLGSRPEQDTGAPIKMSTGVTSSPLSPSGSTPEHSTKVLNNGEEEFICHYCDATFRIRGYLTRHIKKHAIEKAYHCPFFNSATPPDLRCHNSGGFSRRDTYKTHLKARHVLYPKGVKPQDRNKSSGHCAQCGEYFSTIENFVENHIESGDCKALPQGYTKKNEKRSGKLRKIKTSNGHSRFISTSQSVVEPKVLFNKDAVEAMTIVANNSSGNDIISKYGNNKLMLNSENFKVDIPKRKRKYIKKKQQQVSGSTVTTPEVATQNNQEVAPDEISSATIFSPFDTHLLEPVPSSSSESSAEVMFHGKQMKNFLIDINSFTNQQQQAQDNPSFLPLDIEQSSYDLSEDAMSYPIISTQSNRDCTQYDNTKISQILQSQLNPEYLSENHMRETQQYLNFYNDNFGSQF
Experimental: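 Universal 'all 10-mer' protein binding microarrays (Agilent AMADID 015681) probed with GST-tagged S. cerevisiae TFs (full-length or DBD) made by in vitro transcription/translation (PURExpress), about 100-200 nM. Bound TF was detected with fluorescent anti-GST. Each ungapped 8-mer (which stands for itself and its reverse complement) is scored by the PBM enrichment score (E-score), a modified Wilcoxon-Mann-Whitney statistic from -0.5 to +0.5, computed with the Universal PBM Analysis Suite. Scale: above 0.35 generally sequence-specific binding.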

Row | Sequence | PBM E-score
1 | AAGTTTGA | 0.0416
2 | AGCTTGCA | -0.0443
3 | ACGTCCGA | -0.0245
4 | AGTCTTAC | -0.121
5 | ACTCGGCT | -0.0573
6 | GATCCGAC | -0.18
7 | CGGCAGCC | 0.216
8 | AATCTTAC | 0.144
9 | AGTCCATA | -0.028
10 | CGTATTCC | 0.0285
11 | GCAGACCC | -0.107
12 | CATGGTGG | -0.199
13 | CATAGGAG | 0.0407
14 | ACTAACCA | 0.063
15 | GCGCCTAA | 0.313
16 | ACCCGACG | -0.183
17 | AGAGATTA | -0.0422
18 | ATCTGAAT | 0.0625
19 | CCCGGCGC | 0.121
20 | CCGTTGCC | 0.247
21 | AGCCGTTG | 0.26
22 | AGGGGGAG | -0.347
23 | ACTGAAGA | 0.0561
24 | AAATCCTA | 0.0107
25 | ACGCCTCC | -0.102

Row | Sequence | PBM E-score
26 | ATCCCCAG | -0.326
27 | AGAACCGG | 0.0624
28 | CTCACAGC | 0.0766
29 | ACCAATTG | -0.00862
30 | ATCTGCGG | 0.254
31 | CACCGAAA | 0.0518
32 | AGCGGAAA | 0.0606
33 | ACTCTCAT | -0.0907
34 | CCATGTAA | 0.0652
35 | AGATACCA | 0.101
36 | AGTGCAGG | -0.0709
37 | CCGAACTC | -0.135
38 | GGCTGTCA | -0.0641
39 | ACAGGGAG | 0.0213
40 | AGTCATTG | -0.381
41 | CCACGGCA | 0.46
42 | TCAGGCCA | -0.0493
43 | AGTGTTAG | -0.022
44 | TAAGGCAA | 0.165
45 | ATACCTTA | -0.00814
46 | ACGTAGCC | 0.00923
47 | ATTTAAGA | 0.0246
48 | ACATTACC | -0.106
49 | CTACGTCC | -0.143
50 | GTACCCCA | -0.255

Row | Sequence | PBM E-score
51 | ACAGGGCT | -0.0531
52 | GGGCTTAC | -0.165
53 | AAGGTGTG | -0.0841
54 | CCCCTCAA | 0.041
55 | ACAGGAAA | 0.19
56 | ACCTCGAA | -0.165
57 | ACATGATA | 0.21
58 | GTCTATCA | -0.0881
59 | CCGGGGAC | -0.346
60 | ATTAGCCA | 0.0367
61 | AGGTTACA | -0.0575
62 | GCAAGTGA | -0.0866
63 | TAGGACAA | 0.0561
64 | GAATACAC | 0.0184
65 | ACAGAATA | 0.0434
66 | GCTGTTCA | -0.00269
67 | AATTCACG | 0.0873
68 | GTGCAGCA | -0.0575
69 | CATGGGCA | -0.0295
70 | GCCACCTA | -0.0547
71 | AATCCAAA | 0.0534
72 | CCCGTGGC | 0.046
73 | AACATCCC | -0.0503
74 | GGGACGCA | -0.292
75 | AACTTTTC | 0.0507

Row | Sequence | PBM E-score
76 | AGGGCCGG | -0.16
77 | AACTGGGC | -0.297
78 | CAACCTAC | -0.153
79 | AAGTAGGG | -0.0144
80 | AAACTGCA | 0.0943
81 | CGCTCTAG | -0.191
82 | AGGTTCCC | -0.264
83 | CAGGACGA | -0.0812
84 | AATTGACC | 0.142
85 | CTATCCCC | -0.317
86 | CGCACTAG | -0.00448
87 | ACGAGAAT | 0.0498
88 | CAGTATTA | 0.1
89 | AATATCCG | 0.198
90 | GTCAGTAA | 0.0196
91 | AACTAACA | 0.25
92 | CCTACTGC | 0.107
93 | CATCCCTA | 0.0183
94 | GTCTACAC | -0.114
95 | AGAGCTAT | -0.179
96 | ACCGGAAG | 0.0713
97 | ACCTATGA | -0.213
98 | ACAATTGT | 0.0962
99 | CCCTATCA | -0.152
100 | CGAGCGAC | -0.0772

Row | Sequence | PBM E-score
101 | AAGCATCT | -0.17
102 | AACCACTC | 0.0101
103 | AGTAACCA | -0.0155
104 | AGGTGTAG | -0.296
105 | AATCGTAT | 0.114
106 | CTAGGCTA | -0.248
107 | AGCGGCAC | 0.457
108 | CATGCAGA | -0.0125
109 | CGCGTTTC | -0.0791
110 | AGCGGTGC | 0.0287
111 | GATATTAC | 0.164
112 | GTCTGGGA | -0.297
113 | AAATAGAA | 0.0784
114 | CCCTTGGC | -0.27
115 | CGAGTAAA | 0.142
116 | AAATATTC | 0.117
117 | GGGTAACC | -0.252
118 | GAGTCGCC | 0.0137
119 | GGTACTGA | -0.182
120 | ACTATTCC | 0.0191
121 | ATGTGCGG | 0.213
122 | CGGTTGAG | 0.11
123 | AAGTCGGT | -0.167
124 | GTTCGTTA | 0.17
125 | GCGCTAAA | 0.0766

Row | Sequence | PBM E-score
126 | CGATTTAG | 0.0951
127 | GGCACTAC | 0.303
128 | AGAACACG | 0.109
129 | AACGCGTA | 0.104
130 | GTTACTGA | 0.205
131 | GGCGTTGA | 0.2
132 | CAACACAG | 0.026
133 | TGCTGGAA | 0.0356
134 | GGCCGAGA | 0.0415
135 | ACGCCAAC | -0.00633
136 | ACCTTGCC | -0.0638
137 | GGAATCAA | 0.0147
138 | ACACGCCC | -0.181
139 | CATACCCG | 0.0455
140 | GACATGGC | -0.159
141 | GACCCGGA | -0.296
142 | CCAAGTGC | -0.0654
143 | CGGACAAC | 0.114
144 | CCCGAGCA | -0.16
145 | ATAGTGAA | 0.0395
146 | GAGTACAA | 0.144
147 | ATTCAGTA | 0.133
148 | ACACGGGT | 0.202
149 | CCAGCTAA | -0.0143
150 | ATGTCTTA | -0.0654

Row | Sequence | PBM E-score
151 | CCAGAGTC | -0.166
152 | GTAACGCA | 0.071
153 | AAAAGCTG | -0.0459
154 | ACAAACAT | 0.109
155 | CGAACGGA | 0.207
156 | CACATGAC | -0.0361
157 | AATAATGT | 0.0838
158 | GTAATGCA | -0.141
159 | TCCCAAGA | -0.00967
160 | GTGATGAA | -0.245
161 | GACCGGCA | 0.101
162 | ACCTACAC | -0.269
163 | AATGGATC | 0.0312
164 | ACCTCAGA | -0.122
165 | GAGATAAA | 0.117
166 | AGGCCGCC | -0.0139
167 | ACCGGCCA | -0.101
168 | GAGATCCC | -0.162
169 | ATAGAGGA | -0.275
170 | ACCTCTCG | -0.295
171 | AGGCAGTG | 0.177
172 | ATGTAGCG | -0.174
